From PubChem BioAssay AID1508624 (National Center for Advancing Translational Sciences (NCATS), 2021)
Hit rate of the full screen: of about 48,000 compounds, about 120 (0.25%) were called active. Inconclusive results (about 4%) are left out. The call rests on the fitted dose curve; in most records, active means well fitted activation curve with a large enough effect; inconclusive means small, poorly fitted or top-dose-only effect, or another doubt; inactive means no such curve, though single readings can be large or run the other way. Some of the results follow.

test: Primary qHTS for Identification of Small Molecule Activators of Huntingtin-Antisense Promoter Activity; conditions: HEK293 HTT-AS promoter firefly luciferase reporter, 24 h; series mostly up to 57.5 µM; activity change, positive = activation: at the top concentration; further: nearly all actives have a fitted effect of over 55% in size
In short: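 Luminescence was read after Dual-Glo reagent and a 10 min room-temperature incubation. Values were normalized to vehicle (0% activity) and zero RLU (-100% activity). Reporter HEK293 cells had been exposed to compounds (up to 57.5 uM final) for 24 h.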

Activity change, positive = activation, inactive:
C=CCOc1cc(Cl)ccc1C(=O)NCCN(CC)CC -4.96%, O=C(COCCOCCOCC(=O)Nc1c(I)cc(I)c(C(=O)O)c1I)Nc1c(I)cc(I)c(C(=O)O)c1I -2.18%, CCCN1C(=O)c2[nH]nc(-c3ccc(F)cc3)c2C1c1ccc(O)c(OCC)c1 (stereo unspecified) -17.7%, COc1cccc(NC(=O)Cc2ccc(NC(=O)N3CCCCc4ccccc43)cc2)c1 -21.7%, Cc1cc2c(n1-c1ccc(C(=O)NCc3cccc(Br)c3)cc1)CCC(C)C2 (stereo unspecified) -11.8%, CCOC(=O)c1c(-c2ccccc2)oc2ccc(OCc3ccc(C)cc3)cc12 -19.2%, Cc1ccccc1Cn1c(=O)n(CCCCC(=O)NCc2ccc3c(c2)OCO3)c(=O)c2ccccc21 -42.1%, Cc1ccc(N2C(=O)CSC23C(=O)Nc2ccccc23)cc1F (stereo unspecified) -7.48%, Cc1cccc(-c2nc3c4ccccc4n(CC(=O)Nc4cc(F)ccc4F)c(=O)n3n2)c1 9.68%, O=C(COc1ccccc1F)Nc1ccc2nc(SCC(=O)N3CCOCC3)sc2c1 -12.6%, O=S(=O)(c1ccccc1)c1nc(-c2ccc(F)cc2)oc1NCc1ccccc1 10.5%, COc1ccc(CNC(=O)CCCc2nnc3n(C(C)C)c(=O)c4sccc4n23)cc1 -13.4%, CC(C)(Oc1ccc(Cl)cc1)C(=O)OCCCOC(=O)C(C)(C)Oc1ccc(Cl)cc1 -6.62%, O=C(NCCc1ccccc1)c1ccc2c(c1)nc1n2CCOC1 -50.7%, Cc1ccc(S(=O)(=O)Nc2cc(Cl)c3oc4c(c3c2)CCCC4)cc1 -21.6%, CCOC(=O)c1cccc(NC(=O)CSc2ncc3c(n2)-c2ccc(Cl)cc2N(Cc2ccccc2)S3(=O)=O)c1 -10.1%, COc1ccccc1CNC(=O)CCS(=O)(=O)c1ccc2c(c1)oc(=O)n2C 7.1% [at 11.5 µM, percent change from vehicle, -100% = no light], CCOc1ccc(CNC(=O)CSc2c3c(nc4cc(Cl)ccc24)CCCC3)cc1 -33.6%, Cc1c(C)n(Cc2ccccc2)c2ccc(C(=O)N3CCN(c4ccccc4)CC3)cc12 -1.71%, CCN(CC)S(=O)(=O)c1ccc2c(c1)N(CC(=O)Nc1c(C)cccc1C)C(=O)C1CCCN21 (stereo unspecified) -9.24%, COc1ccc(C(=O)NC(c2ccccc2Cl)c2cc(Cl)c3cccnc3c2O)cc1 (stereo unspecified) -40.6%, CCOC(=O)c1oc2c(c1C)-c1nn(Cc3cccc(Cl)c3)cc1CC2 -27.8%, Cc1ccc(OCC(=O)NCC(=O)OCc2cc(=O)n3nc(C(C)C)sc3n2)cc1 -9.75%, CC(C)Oc1ccc(C(=O)N(Cc2ccc(N(C)C)cc2)Cc2ccco2)cc1 -25.2%, COc1cc(NC(=O)CN2CCCN(Cc3cccc(F)c3)S2(=O)=O)cc(OC)c1 -8.53%, CCOC(=O)c1c(C)oc2nc(C)nc(NCCc3ccc(C)cc3)c12 -14.2%, CCCc1cc(N2CCN(c3ccccc3F)CC2)n2cnnc2n1 -20.4%, CC1=C(C(=O)N2CCCCC2)C(c2ccc(Cl)cc2)n2c(nc3ccccc32)N1 (stereo unspecified) -8.88%, Cc1ccc(CN2C(=O)c3ccccc3Sc3ccc(C(=O)N4CCOCC4)cc32)cc1 -31.1%, CCOc1ccc(NC(=O)CSc2oc(-c3ccco3)nc2S(=O)(=O)c2ccccc2)cc1 -7.84%, COc1ccc(-c2nc(C)c(CCNC(=O)c3ccc(C(F)(F)F)cc3)s2)cc1OC -0.371%, Cc1ccc(NC(=O)c2oc3ccc(S(=O)(=O)N(C)C4CCCCC4)cc3c2C)c(C)c1 -14.9%, CCCNC(=O)c1cc2n(n1)CCCN(Cc1ccc(C)cc1)C2=O 0.176%, CCOc1ccccc1NC(=O)CSc1ncc2c(n1)-c1ccccc1N(CC)S2(=O)=O -18.3%, COc1ccc(CNCc2ccc(C(=O)O)s2)cc1 -13.2%, O=C(NCCc1ccc(Cl)cc1)c1ccc(Nc2nc3ccccc3n3nnnc23)cc1 3.89%, Cc1cccc(NC(=O)C(=O)NCCCN2CCOCC2)c1 -2.46%, COc1ccc(NC(=O)c2nc(SCc3ccc(F)cc3)ncc2Cl)cc1 -16.2%, CCOc1ccc(NC(=O)c2sc(-n3nc(C)c(CCC(C)C)c3C)nc2C)cc1 7.16%, CCC(C)Nc1nc2c(c(=O)[nH]c(=O)n2C)n1Cc1ccc(F)cc1 (stereo unspecified) -4.46%, Cc1ccc(-n2ncc3c(NCCc4ccc(S(N)(=O)=O)cc4)ncnc32)cc1 0%, CCCCOC(=O)CSc1ncnc2sc3c(c12)CCC(C)C3 (stereo unspecified) 9.62%, OCC(O)CN1CCN(c2ccccc2)CC1 (stereo unspecified) -14.5%, C=Cc1ccc(Cn2c(C(=O)O)c(CNCCc3ccco3)c3ccc(C)cc32)cc1 -36.5%, COC(=O)c1cc2sccc2n1Cc1nc(-c2cccc(Cl)c2)oc1C 21.1%, CC1=C(c2ccc(C)cc2)S(=O)(=O)NC1=NCc1ccccc1Cl 2.61%, CC(=O)O[C@H]1C[C@@H]2CC[C@H]3[C@H]4C[C@H]([N+]5(C)CCCCC5)[C@@H](OC(C)=O)[C@@]4(C)CC[C@@H]3[C@@]2(C)C[C@H]1[N+]1(C)CCCCC1 -7.25%, CCN(C(=O)Cn1c(=O)oc2cc(S(=O)(=O)N3CCCCCC3)ccc21)c1cccc(C)c1 -8.05%, Cc1cccc(OC(=O)c2snnc2C)c1 -3.69%, Cc1cccc(C)c1Nc1c(-c2ccccn2)nc2ccc(Cl)cn12 -19.1%, COc1ccc(-c2nc(CSCC(=O)N3CCN(c4ccccc4F)CC3)c(C)o2)cc1 -66.4%, Cn1cc(S(=O)(=O)N2CCCCCC2)cc1C(=O)NCc1ccc(F)cc1 -27.2%, CCc1ccccc1NC(=O)COCc1cc(-c2ccco2)on1 4.29%, COc1ccccc1S(=O)(=O)Cc1ccc(C(=O)N2CCN(c3cc(Cl)ccc3C)CC2)o1 -48.4%, COC(=O)c1c(-c2ccc(Cl)cc2)noc1N1CCN(c2ccccc2OC)CC1 -34.4%, CCOc1ccc2c(c1)c(=O)c(C(=O)c1ccc(CC)cc1)cn2CC(=O)Nc1cccc(Cl)c1 -16.9%, Cc1cc(C)c(Cn2c(=O)n(CCC(=O)NCc3ccc4c(c3)OCO4)c(=O)c3ccccc32)c(C)c1 -4.36%, CCOc1ccc(OCC)c(NC(=O)C2CCN(S(=O)(=O)c3ccc4c(c3)CC(C)N4C(C)=O)CC2)c1 (stereo unspecified) -21.9%, Cc1ccc2occ(CC(=O)N(Cc3ccc(Cl)cc3)Cc3ccco3)c2c1 5.66%, Cc1ccc(N2C(=O)[C@@H]3CSC(c4ccc(Cl)cc4)N3C2=O)cc1 (stereo partly specified) -21.3%, CCCCn1c(CCCNC(=O)c2cccc(C)c2)nc2ccccc21 -33.1%, COCCNC(=O)Cn1nc(-c2ccc(C)cc2)c2ccccc2c1=O -4.68%, Cc1cccc(NC(=O)c2ccc(CN3CC(=O)N4CCCCC4C3=O)cc2)c1C (stereo unspecified) -14.9%, Cc1nc2cc(-c3cccc(F)c3)nn2c(C)c1CCC(=O)Nc1ccccc1C(N)=O -71.3%, COc1ccc(CNc2nc(-c3ccc(Cl)cc3)cc(C(F)(F)F)n2)cc1 -33.2%, COc1cccc(Cn2nnc3c(=O)[nH]c(C4CCCN(C(=O)c5ccccc5Cl)C4)nc32)c1 (stereo unspecified) -16.5%, COc1ccc2cc(CNc3ccc(C)cc3)c(=O)n(CC(=O)Nc3ccc(C)cc3Cl)c2c1 -7.26%, CCOc1ccc(NC(=O)CSc2c3c(nc4ccccc24)CCCC3)cc1 -6.72%, CCN1CCSc2ccc(C(=O)NCc3cccc(Br)c3)cc21 -16%, CCCCOc1ccccc1C(=O)N(Cc1sccc1C)C1CCS(=O)(=O)C1 (stereo unspecified) -16.1%, CC(C)(C)c1ccc(C(=O)N2CCCC(c3nc4c(nnn4Cc4cccc(F)c4)c(=O)[nH]3)C2)cc1 (stereo unspecified) -24.2%, Cc1ccc(-c2cn3nc(N4CCCC(C(=O)NCc5ccc(F)cc5)C4)sc3n2)cc1 (stereo unspecified) -34%, Cc1cc(C)cc(NC(=O)Cn2c(=O)n(-c3ccc(C)c(C)c3)c(=O)c3oc4ccccc4c32)c1 -16.8%, COc1ccc(N2CCN(Cc3nc4c(c(=O)n(C)c(=O)n4C)n3C(C)C)CC2)cc1 -38.4%, Cc1ccc2nc(CN3CCN(S(=O)(=O)c4ccc(C(C)C)cc4)CC3)oc2c1 -21.1%, CN(C)CCCn1c(-c2ccc(Cl)cc2)csc1=Nc1ccccc1 -18.8%, COC(=O)c1ccc(NC(=O)CCn2cnnn2)c(C)c1 -4.23%, O=C(c1ccco1)N(Cc1cccs1)c1ccc(F)cc1 -21.3%, Cc1cc(O)c(C(c2ccccc2)N2CCN(c3ccc(F)cc3)CC2)c(=O)n1Cc1ccco1 (stereo unspecified) -10.7%, Cc1ccc(-n2c(CCC(=O)O)ccc2-c2cccs2)cc1Cl -0.206%, Cc1cccc(OCc2cc(=O)n3c4c(sc3n2)CCCC4)c1C 1.33%, CCc1ccccc1NC(=O)c1cc2nc(-c3ccc(Br)cc3)cc(C(F)(F)F)n2n1 -0.174%, CC(C)c1nc2ccc(C(=O)NCc3ccccc3Br)cc2o1 10.8%, COc1ccc(CNC(=O)c2sc3nc[nH]c(=O)c3c2C)cc1 -4.14%, CCOc1ccccc1N1CC(c2nc3ccccc3n2CCCOc2ccc(OC)cc2)CC1=O (stereo unspecified) -2.09%, Cc1noc(-c2ccccc2OCC(=O)Nc2ccccc2[N+](=O)[O-])n1 -6.44%, COc1cccc(CNC(=O)c2ccc(-n3c(C)cc4c3CCCC4)cc2)c1 -3.34%, CC(C)OCCCN1C(=O)c2[nH]nc(-c3ccccc3O)c2C1c1ccccc1F (stereo unspecified) -23.1%, CCOC(=O)c1cc(-c2ccc(F)cc2)n(CCC(=O)Nc2cc(OC)cc(OC)c2)c1C -36.7%, Cn1c(=O)c2c(nc(N3CCOCC3)n2Cc2ccccc2F)n(C)c1=O 2.93%, O=C(Nc1ccccc1C(F)(F)F)C1CCN(S(=O)(=O)c2ccccc2)CC1 -5.85%, O=C(CSc1nc2ncccc2o1)Nc1ccc(Cl)cc1F 17.7%, COc1ccc(OC)c(NC(=O)c2cc3cccc(OC)c3oc2=O)c1 28.2%, CCCNC(=O)c1ccc(Cn2c(SCC(N)=O)nc3ccccc3c2=O)cc1 -20.6%, CCOc1ccccc1C(=O)N1CCc2cc(OC)c(OC)cc2C1COc1ccc(OC)cc1 (stereo unspecified) -19.9%, COc1cccc(CNC(=O)Cn2ncn3c(cc4ccccc43)c2=O)c1 4.19%
